According to PubChem BioAssay AID1159614 (National Center for Advancing Translational Sciences (NCATS), 2016):
Among all 45,000 compounds or so, about 65 (0.1%) were called active. The call rests on the fitted dose curve; in most records, active means well fitted activation curve with a large enough effect; inconclusive means small, poorly fitted or top-dose-only effect; inactive means no such curve, though single readings can be large or run the other way. The list shows a part of the results.

The compounds below were run against Galactocerebrosidase (Homo sapiens) (UniProt P54803) (assay: A Novel Cell-Based Assay to Identify Small Molecules for B -Galactocerebrosidase). Conditions: 145M-Twi-hGALC-G270D cells, HMU-beta-Gal fluorescence, 48 h; series mostly up to 57.5 µM; activation: at the top concentration.
Sequence of UniProt P54803 (P54803 whole entry, looked up): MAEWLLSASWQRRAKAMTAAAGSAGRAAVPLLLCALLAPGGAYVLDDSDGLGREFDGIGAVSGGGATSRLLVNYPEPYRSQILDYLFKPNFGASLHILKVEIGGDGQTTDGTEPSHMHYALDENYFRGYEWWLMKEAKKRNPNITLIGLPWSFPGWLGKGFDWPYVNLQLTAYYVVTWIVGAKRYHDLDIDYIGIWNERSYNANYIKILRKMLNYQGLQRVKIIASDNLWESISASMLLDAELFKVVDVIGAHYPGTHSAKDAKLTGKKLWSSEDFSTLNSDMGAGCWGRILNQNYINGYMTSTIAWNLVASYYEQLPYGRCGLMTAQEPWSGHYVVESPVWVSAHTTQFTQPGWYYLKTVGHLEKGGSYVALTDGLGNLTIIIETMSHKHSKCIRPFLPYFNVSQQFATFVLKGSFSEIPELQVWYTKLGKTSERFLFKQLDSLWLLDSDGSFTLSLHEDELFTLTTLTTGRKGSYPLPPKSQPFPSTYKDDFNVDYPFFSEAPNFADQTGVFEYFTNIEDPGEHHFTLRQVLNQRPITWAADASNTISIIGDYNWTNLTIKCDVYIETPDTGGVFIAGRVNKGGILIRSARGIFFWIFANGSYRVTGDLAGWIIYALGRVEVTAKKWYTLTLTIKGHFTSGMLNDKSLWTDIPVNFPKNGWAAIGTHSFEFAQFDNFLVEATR
In short: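 qHTS, 1536-well; 145M-Twi-hGALC-G270D cells (WT line also made) in DMEM/F12 + 10% FBS; compound incubation on live cells; HMU-β-gal 0.1 mM final, pH 5.2, NaTC; carbonate stop; fluorescence increase = enhanced residual activity.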
Further: 0% is about no effect; nearly all actives have a fitted effect of over 65% in size.

activation, inactive:
CCOCCCNC(=O)C1CCN(c2nn3cc(-c4ccc(F)cc4)nc3s2)CC1 -7.63%
Cc1ccc(-c2nnc(Nc3ccc(O)cc3)c3ccccc23)cc1S(=O)(=O)N1CCN(C)CC1 2.19%
COc1ccc(Nc2cc(C(=O)NCCc3ccc(C)cc3)c3ccccc3n2)c(OC)c1 -16%
COc1cc(-c2noc(-c3ccc(NCc4ccccc4)c([N+](=O)[O-])c3)n2)cc(OC)c1OC -7.81%
Cc1ccc(C(=O)NCCc2ccc(Cl)cc2)cc1-n1c(C)nc2cccnc21 -10.8%
CCOc1ccc(NC(=O)CCNS(=O)(=O)c2ccc3c(c2)oc(=O)n3C)cc1 -6.75%
CCCn1c2ccccc2c2cnn(CC(=O)NCCc3ccc(OCC)cc3)c(=O)c21 4.17%
CCC(C(=O)OCCOCCN(CC)CC)c1ccccc1 (stereo not given) -4.35%
CCOc1ccc(-c2nn(CC(=O)NC3CCCCC3)c3c2cnc2ccc(C)cc23)cc1 -22%
CCn1c(=O)c2cc(C(=O)N(CCN(C)C)Cc3ccccc3)sc2c2ccccc21 13.4%
COc1ccccc1CNC(=O)c1ccc2c(c1)N(Cc1cccc(C)c1)C(=O)c1ccccc1S2(=O)=O -7.35%
COc1ccc(NC(=O)Cn2nnc3sc4c(c3c2=O)CCC(C)C4)c(OC)c1 (stereo not given) -16.8%
Cc1ccc(C)c(Cn2c3ccccc3c3cnn(CC(=O)NCCC4=CCCCC4)c(=O)c32)c1 -7.49%
COc1ccc(Cl)cc1NC(=O)c1sc(-n2nc(C)c(Cc3ccccc3)c2C)nc1C -7.59%
CCc1ccc(CN(Cc2ccco2)C(=O)c2ccc(OC)cc2)cc1 -9.17%
COCCCNC(=O)CSC1=Nc2ccccc2C2=NC(CCC(=O)NCc3ccccc3OC)C(=O)N12 (stereo not given) -10.8%
COc1ccc(N2CCN(c3oc(/C=C/c4ccc(F)cc4)nc3C#N)CC2)cc1 3.91%
CCOc1cc(C(=O)N2CC(=O)Nc3ccc(C)cc3C2c2ccccc2)cc(OCC)c1OCC (stereo not given) -4.85%
Cc1nnc(SCc2ccccc2)c2cc3sccc3n12 -8.85%
CCc1ccc(CNC(=O)CCC(=O)N2Cc3cccc(OC)c3Oc3ncccc32)cc1 -4.96%
COC(=O)c1cccnc1 -9.54%
Cc1ccccc1NC(=O)CSc1nnc(C)c(=O)[nH]1 -22.4%
CCOc1cccc(CNC(=O)c2ccc(N3CCCC3)c(NC(=O)NCc3ccc(F)cc3)c2)c1 -8.19%
Nc1c(-c2nc(-c3cccs3)no2)nnn1-c1ccccc1Cl -12.6%
Cc1ccc(Cl)cc1N(C)C(=O)Cn1nc(Cc2cccnc2)c2ccccc2c1=O -28.7%
O=C(NCc1ccco1)C1CCN(C(=O)N2CCOc3ccccc32)CC1 -14.7%
Cc1cc(C)cc(OC(C)C(=O)Nc2nonc2-c2ccc(Br)cc2)c1 (stereo not given) -11%
O=C(Nc1cccc(C(=O)OCc2cc(=O)n3nc(C4CC4)sc3n2)c1)c1ccccc1 10.5%
Cc1ccc(C)c(Cn2c3ccccc3c3cnn(CC(=O)NCCCc4ccccc4)c(=O)c32)c1 5.2%
CCOc1ccc(-c2nonc2NC(=O)c2oc3c(C)c(C)ccc3c2C)cc1OCC -26.4%
COCCn1c(CNC(=O)c2ccc(C)cc2)nc2cccnc21 -9.3%
COc1ccccc1-c1nc2c3c(-c4ccccc4)c(-c4ccccc4)oc3ncn2n1 -12.7%
CCN(CC)CCOC(=O)c1ccc(NC(=O)Cn2ncc3c([nH]c4ccc(C)cc43)c2=O)cc1 -6.42%
Cc1ccccc1CS(=O)(=O)CC1Nc2ccc(C(=O)NCc3ccc(Cl)cc3)cc2NC1=O (stereo not given) -11%
Cc1ccc(-n2nc(C)c(C(=O)NCCCN3CCN(c4ccc(F)cc4)CC3)c2-n2cccc2)cc1 -25.9%
CCN(c1cccc(C)c1)S(=O)(=O)c1nnc(NC(=O)C2CCCCC2)s1 -10.1%
O=C(CSC1=Nc2ccccc2C2=NC(CC(=O)NC3CCCCC3)C(=O)N12)Nc1ccc(F)cc1 (stereo not given) -17.9%
O=C(CSc1nc2ccccc2nc1Cc1ccc(Cl)cc1)N1CCc2ccccc21 25.4%
Cc1ccc(-c2nc(C)c(CCNC(=O)c3ccco3)s2)cc1 -7.91%
CCc1ccc(CNC(=O)CN2C(=O)c3cccnc3Oc3ccc(Cl)cc32)cc1 -0.574%
CCOc1ccc(NC(=O)CSc2ncc3c(n2)-c2ccc(Cl)cc2N(Cc2ccccc2)S3(=O)=O)cc1 -15.1%
COc1ccc(-c2nc3sc(CCNC(=O)c4cc(OC)c(OC)c(OC)c4)c(C)n3n2)cc1 -17.2%
COC(=O)c1nc2n(n1)C(c1cccc(Cl)c1)C(C(=O)Nc1ccccc1OC)=C(C)N2 (stereo not given) -9.45%
Cc1cccc(C)c1NC(=O)C(NS(=O)(=O)c1ccc2c(c1)CCC(=O)N2)c1ccccc1 (stereo not given) -16.9%
Cc1c2cnn(-c3ccccc3)c(=O)c2c(C)n1CCCC(=O)Nc1cc(F)ccc1F 2.07%
CCOc1ccc(C2c3[nH]c4ccccc4c3CCN2C(=O)CCc2ccccc2)cc1 (stereo not given) -2.29%
COc1ccc(C)cc1NC(=O)c1oc2ccc(S(=O)(=O)N3CCCCC3)cc2c1C -4.21%
Cc1ccc(C)c(N2CCN(S(=O)(=O)c3cc(Br)cc4c3N(C(=O)C3CC3)CC4)CC2)c1 -8.05%
COc1ccc(-n2c(SCC(=O)Nc3ccc(Cl)c(C)c3)nc3n[nH]c(C)c3c2=N)cc1 -16%
Cc1ccc2[nH]c(CSc3nnc(NC(=O)COc4ccccc4)s3)cc(=O)c2c1 -5.28%
CCOC(=O)c1c(NC(=O)c2ccc(S(=O)(=O)N3CCC(C)CC3)cc2)sc2c1CCN(C)C2 1.61%
NC(=O)c1c(NC(=O)c2nc(SCc3ccccc3F)ncc2Cl)sc2c1CCCC2 -7.84%
Cc1ccc(Sc2c(C)nn(C(=O)COc3ccccc3Br)c2C)cc1 -23.9%
COc1cc(C(=O)NCCCc2nc3ccccc3n2CC(C)C)cc(OC)c1OC 3.64%
O=C(C1CCN(S(=O)(=O)c2ccc(Br)s2)CC1)N1CCN(c2cccc(Cl)c2)CC1 -13.9%
Clc1ccc2c(c1)Nc1ccccc1S2 -12.7%
CCOC(=O)c1ccc(NC(=O)CCn2c(=O)c3cccn3c3ccccc32)cc1 -13.5%
CCOc1ccc(CCNC(=O)c2sc3nc4n(c(=O)c3c2C)CCCC4)cc1OCC -26.4%
CCS(=O)(=O)N1CCc2cc(C(=O)Nc3ccc(OC)c(Cl)c3)ccc21 -14.2%
CCCCn1cc(S(=O)(=O)c2ccc(C)c(C)c2)c(=O)c2cc(F)c(N3CCCC(C)C3)cc21 (stereo not given) -14.9%
COc1ccc(OC)c(CNC(=O)c2nn(-c3ccc(OC)c(Cl)c3)c(=O)c3c2c2ccccc2n3C)c1 -19.6%
CCOc1ccc2nc(N3CCCC(C(=O)Nc4c(C)cccc4C)C3)sc2c1 (stereo not given) -13.9%
Cc1cc(C)cc(-n2ccnc2SCC(=O)Nc2nnc(C)s2)c1 -18.5%
CCOC(=O)c1sc2ncn(CC(=O)Nc3ccc(N(C)C)cc3)c(=O)c2c1C -7.67%
O=C(Nc1nc2ccc(S(=O)(=O)N3CCCC3)cc2s1)c1cccc(F)c1 -5.3%
CCC(=O)Nc1c(C(=O)N2CCN(c3ccc(F)cc3)CC2)oc2ccccc12 -10%
COc1ccc(S(=O)(=O)n2nc(C)c(S(=O)(=O)N3CCC(C)CC3)c2C)cc1C 4.98%
COc1ccc(CCNS(=O)(=O)c2ccc3c(c2)CC(C)N3C(=O)C2CCC2)cc1OC (stereo not given) -12.3%
CCOc1ccc(CC(=O)NCCc2csc(-c3ccc(C)cc3)n2)cc1 -9.07%
CCOc1ccc(N(C(=O)CC(C)C)S(=O)(=O)c2ccc3c(c2)oc(=O)n3C)cc1 1.95%
Cc1ccc(-c2nc3scc(CCNC(=O)Cc4ccc(Cl)cc4)n3n2)cc1 -9.57%
Nc1nc2ccccc2n1Cc1ccc(F)cc1 -7.28%
COc1ccc(CCNC(=O)CCCn2c(=O)c3ccccc3n(Cc3cccc(Cl)c3)c2=O)cc1OC 3.87%
Cc1ccc(NC(=O)Cn2cc(C(=O)C3CC3)c3ccccc32)cc1 -27.9%
COc1ccc(NC(=O)Cn2nnc(C(=O)Nc3ccc(F)c(Cl)c3)c2N)cc1OC -17%
COc1ccc(-c2noc(CN(C(=O)COc3cc(C)c(Br)c(C)c3)C(C)C)n2)cc1 -34.1%
Cn1c(SCc2ccc(F)cc2)nc2ccc(C(=O)NCc3ccc(Cl)cc3)cc21 0.296%
CCN(CC)c1ccc(NS(=O)(=O)c2ccc(-c3cnc(C4CC4)o3)cc2)c(C)c1 -15.7%
O=C1NCCN(Cc2ccc(F)cc2)C1=O -9.87%
CCC1CN(C(=O)N2CCC(C(=O)NCCc3ccc(Cl)cc3)CC2)c2ccccc2O1 (stereo not given) -8.53%
CCCn1c(SCc2nc(-c3ccc(OC)cc3OC)no2)nnc1-c1ccc(Cl)cc1 -14.6%
Cc1cccc(C)c1NC(=O)CSc1nc(-c2ccccc2)nc2c1Cc1c(CO)cnc(C)c1O2 -14.1%
CCc1ccc(S(=O)(=O)c2cn(CC(=O)Nc3ccc(C)cc3)c3ccccc3c2=O)cc1 -8.57%
CCOC(=O)c1[nH]c2c(c1Cc1ccccc1)C(=O)CC(c1ccc(Cl)cc1)C2 (stereo not given) -15.5%
Cn1c(=O)c(=O)n(C)c2cc(N3CCOCC3)c(NS(=O)(=O)c3ccc(Cl)cc3)cc21 -10.7%
COC(=O)c1scc(-c2ccc(C)cc2)c1S(=O)(=O)Nc1cc(Cl)ccc1C -45.7%
O=S(=O)(NCCc1nnc2ccc(SCc3ccc(Cl)cc3Cl)nn12)c1ccccc1 -5.76%
CCOC(=O)c1ccc(NC(=O)c2c(NC(C)=O)sc3c2CCC(C)C3)cc1 (stereo not given) -8.93%
CCOc1ccc(CCNC(=O)c2ccc3c(Cl)c4c(nc3c2)CCCC4)cc1 -12.3%
COc1cccc(C(c2sc3nc(-c4ccco4)nn3c2O)N2CCC(O)CC2)c1 (stereo not given) -21%
Cc1ccc(CNC(=O)c2ccc3nc(N4CCCCC4)sc3c2)cc1 -9.05%
CCOc1ccccc1NC(=O)c1sc2nc3n(c(=O)c2c1C)CCCCC3 -16.9%
CN(C(=O)c1ccc2c(c1)N(Cc1cccc(Cl)c1)C(=O)c1ccccc1S2=O)C1CCCCC1 (stereo not given) -36%
CCOC(=O)C1=C(CS(=O)(=O)c2ccc(C)cc2)NC(=O)NC1c1ccc(C(C)C)cc1 (stereo not given) -14.4%
COc1ccc(NC(=O)CCS(=O)(=O)c2cccc3nonc23)cc1Cl -12.6%
